# Assay results: the supplement of paper PMC8728848
# The other results are listed elsewhere or left out.
# B1: PX14367A-bth-493-35-493 (Bacteroides thetaiotaomicron) (protein)
# chain: VSSDQVAVAGNAERLFNGAWYNLFEYGTTYANIGYRALQCQDDMMASDVVSRPKYGFNSSYQFNDVAIPSDGRTSFAWYLIYKTIDNCNTAISIKGDSEELRQAQGQALALRAFCYLHLVQHYQFTYLKDKDAPCVPIYTEPTTSGTKPKGKSTVAQVYQQIFDDLNLAQDYLTNYVRKGDGQKFKPNTDVVNGLMARAYLLTGQWGEAAKAAEAARKGYSLMTTTAEYEGFNNISNKEWIWGSPQTLSQSDASYNFYYLDATYVGAYSSFMADPHLMDTFVKGDIRLPLFQWMREGYLGYKKFHMRSDDTADLVLMRSAEMYLIEAEAKVRDGVALDQAVAPLNTLRTARGVGNYDVTGKTKEQVIDEILMERRRELWGEGFGITDVLRNQKAVERMALSEDMQKTEVDCWQEGGSFAKRNPLGHWFLNFPDGKAFSANSSYYLYAIPEKEINANPNL
# What was measured:
# Assay in all cases: glycan array binding signal (z-score within array); higher = stronger binding
# Details in all cases: glycan notation: IUPAC condensed, linker removed
# [1] = biological target: Gal(b1-4)GlcNAc(b1-2)Man(a1-6)[Man(a1-3)]Man(b1-4)GlcNAc(b1-4)GlcNAc
# Method in brief: (§1)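 Negative Z-scores can be read as non-binding. The Z-score is calculated within each array and then averaged across arrays of one protein sequence at different concentrations or buffers and across linkers. Arrays, 3228 in all, were curated from the Consortium for Functional Glycomics database and kept only where the protein sequence was available.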
# [2] = biological target: Gal(b1-4)GlcNAc(b1-2)[Gal(b1-4)GlcNAc(b1-4)]Man(a1-3)[Gal(b1-4)GlcNAc(b1-2)Man(a1-6)]Man(b1-4)GlcNAc(b1-4)GlcNAc
# Method in brief: as §1
# [3] = biological target: Gal(b1-4)GlcNAc(b1-2)[Gal(b1-4)GlcNAc(b1-4)]Man(a1-3)[Gal(b1-4)GlcNAc(b1-2)[Gal(b1-4)GlcNAc(b1-6)]Man(a1-6)]Man(b1-4)GlcNAc(b1-4)GlcNAc
# Method in brief: as §1
# [4] = biological target: Gal(b1-4)GlcNAc(b1-2)[Gal(b1-4)GlcNAc(b1-4)]Man(a1-3)[GlcNAc(b1-4)][Gal(b1-4)GlcNAc(b1-2)Man(a1-6)]Man(b1-4)GlcNAc(b1-4)GlcNAc
# Method in brief: as §1
# [5] = biological target: Gal(b1-4)GlcNAc(b1-2)[Gal(b1-4)GlcNAc(b1-4)]Man(a1-3)[GlcNAc(b1-4)][Gal(b1-4)GlcNAc(b1-2)[Gal(b1-4)GlcNAc(b1-6)]Man(a1-6)]Man(b1-4)GlcNAc(b1-4)GlcNAc
# Method in brief: as §1
# [6] = biological target: Gal(b1-4)GlcNAc(b1-2)[Gal(b1-4)GlcNAc(b1-6)]Man(a1-6)[Gal(b1-4)GlcNAc(b1-2)Man(a1-3)]Man(b1-4)GlcNAc(b1-4)GlcNAc
# Method in brief: as §1
# [7] = biological target: Gal(b1-4)GlcNAc(b1-2)[Gal(b1-4)GlcNAc(b1-6)]Man(a1-6)[Gal(b1-4)GlcNAc(b1-2)Man(a1-3)]Man(b1-4)GlcNAc(b1-4)[Fuc(a1-6)]GlcNAc
# Method in brief: as §1
# [8] = biological target: Gal(b1-4)GlcNAc(b1-2)[Gal(b1-4)GlcNAc(b1-6)]Man(a1-6)[GlcNAc(b1-4)][Gal(b1-4)GlcNAc(b1-2)Man(a1-3)]Man(b1-4)GlcNAc(b1-4)GlcNAc
# Method in brief: as §1
# [9] = biological target: Gal(b1-4)GlcNAc(b1-2)[Gal(b1-4)GlcNAc(b1-6)]Man(a1-6)[GlcNAc(b1-4)][Gal(b1-4)GlcNAc(b1-2)[Gal(b1-4)GlcNAc(b1-4)]Man(a1-3)]Man(b1-4)GlcNAc(b1-4)[Fuc(a1-6)]GlcNAc
# Method in brief: as §1
# [10] = biological target: Gal(b1-4)GlcNAc(b1-3)Gal(b1-3)GalNAc
# Method in brief: as §1
# [11] = biological target: Gal(b1-4)GlcNAc(b1-3)Gal(b1-3)GlcNAc
# Method in brief: as §1
# [12] = biological target: Gal(b1-4)GlcNAc(b1-3)Gal(b1-4)Glc
# Method in brief: as §1
# [13] = biological target: Gal(b1-4)GlcNAc(b1-3)Gal(b1-4)GlcNAc
# Method in brief: as §1
# [14] = biological target: Gal(b1-4)GlcNAc(b1-3)Gal(b1-4)GlcNAc(b1-2)Man(a1-3)[Gal(b1-4)GlcNAc(b1-3)Gal(b1-4)GlcNAc(b1-2)Man(a1-6)]Man(b1-4)GlcNAc(b1-4)GlcNAc
# Method in brief: as §1
# [15] = biological target: Gal(b1-4)GlcNAc(b1-3)Gal(b1-4)GlcNAc(b1-2)Man(a1-3)[Gal(b1-4)GlcNAc(b1-3)Gal(b1-4)GlcNAc(b1-2)Man(a1-6)]Man(b1-4)GlcNAc(b1-4)[Fuc(a1-6)]GlcNAc
# Method in brief: as §1
# [16] = biological target: Gal(b1-4)GlcNAc(b1-3)Gal(b1-4)GlcNAc(b1-2)[Gal(b1-4)GlcNAc(b1-3)Gal(b1-4)GlcNAc(b1-6)]Man(a1-6)[Gal(b1-4)GlcNAc(b1-3)Gal(b1-4)GlcNAc(b1-2)Man(a1-3)]Man(b1-4)GlcNAc(b1-4)GlcNAc
# Method in brief: as §1
# [17] = biological target: Gal(b1-4)GlcNAc(b1-3)Gal(b1-4)GlcNAc(b1-2)[Gal(b1-4)GlcNAc(b1-3)Gal(b1-4)GlcNAc(b1-6)]Man(a1-6)[Gal(b1-4)GlcNAc(b1-3)Gal(b1-4)GlcNAc(b1-2)Man(a1-3)]Man(b1-4)GlcNAc(b1-4)[Fuc(a1-6)]GlcNAc
# Method in brief: as §1
# [18] = biological target: Gal(b1-4)GlcNAc(b1-3)Gal(b1-4)GlcNAc(b1-3)Gal(b1-4)GlcNAc
# Method in brief: as §1
binder,measurement,setting,value
B1,glycan array binding signal (z-score),[1],-0.392
same,glycan array binding signal (z-score),[2],0.239
same,glycan array binding signal (z-score),[3],-0.334
same,glycan array binding signal (z-score),[4],-0.544
same,glycan array binding signal (z-score),[5],1.66
same,glycan array binding signal (z-score),[6],0.719
same,glycan array binding signal (z-score),[7],-0.167
same,glycan array binding signal (z-score),[8],0.503
same,glycan array binding signal (z-score),[9],-0.444
same,glycan array binding signal (z-score),[10],-0.505
same,glycan array binding signal (z-score),[11],-0.098
same,glycan array binding signal (z-score),[12],-0.493
same,glycan array binding signal (z-score),[13],-0.81
same,glycan array binding signal (z-score),[14],3.94
same,glycan array binding signal (z-score),[15],7.69
same,glycan array binding signal (z-score),[16],0.133
same,glycan array binding signal (z-score),[17],2.18
same,glycan array binding signal (z-score),[18],0.135
